Patent US9040042B2, “Optimized antibodies that target HM1.24” (Xencor, Inc., priority 2006, dated 2015)

Legend:
PBMCs = experiment: Flow cytometry binding of anti-HM1.24 antibody to cell types in PBMCs; parameters: species or system human; details: PMNs, B-cells, monocytes, NK cells, T cells; 6-color flow cytometry; FIG. 7
Description: Flow cytometry was used to confirm the binding of anti-HM1.24 antibody to HM1.24 antigen and plasma cells, as well as to evaluate the expression of HM1.24 on various cell types in PBMCs. 1×10^6 PBMCs were first mixed with either unlabelled HM1.24_H0L0_IgG1_WT or isotype control IgG1 (hIgG_Kappa, from Sigma) antibody. A mixture of cell type specific labeled antibodies (all mouse anti-human CD, BD Biosciences) was then added to tag the specific cell types in the PBMCs. The following antibodies were used: anti-CD15-FITC (BD 555401) for labeling PMNs, anti-CD19-PerCP-Cy5.5 (BD 3409510) for labeling B-cells, anti-CD14-PE-Cy7 (BD 557742) for labeling monocytes, ant-CD56-APC (BD 555518) for labeling NK cells, and anti-CD3-APC-Cy3 (BD 557832) for labeling T cells. After incubation on ice for 30 min. in the dark, the cells were washed and mixed with R-PE conjugated F(ab′)2 fragment Goat anti-human IgG (against fc-gamma fragment) to specifically label the primary test antibody (anti-HM1.24 or isotype control). After incubation, cells were washed again and analyzed by 6-color flow cytometry using a FACS Canto II flow cytometer to determine the expression of HM1.24 on any of these specific cell types in PBMCs.

HM1.24+ RPMI8226 cells = experiment: Cell-based ADCC assay (LDH release), PBMC effector cells; details: RPMI8226 target cells, 4 hours at 37° C., FIG. 9
Description: The capacity of the variant antibodies to mediate effector function against HM1.24 expressing cells was tested in a cell-based ADCC assay (FIG. 9). Human peripheral blood monocytes (PBMCs) were isolated from leukopaks and used as effector cells, and HM1.24+ RPMI8226 cells were used as target cells. 10,0000 RPMI8226 target cells were incubated with 450,000 effector cells (non-adherent PBMC cells from a healthy donor) in 100 ul of 1% FBS/RPMI1640 ADCC assay media in the presence of antibodies. After 4 hours at 37° C., relative ADCC activity was detected using fluorescent LDH (lactate dehydrogenase release) detection system from Promega as per manufacturer's protocol. The ADCC activity was determined by the following: ((Experimental Value−(Effector and Target))/(Total Target−Target Alone))*100 where Total Target value is RPMI8226 cells lysed with 1% TritonX100. […] However, optimization of the antibody by engineering Fc variants with enhanced FcγR affinity enables a significant amount of ADCC activity.
The humanized variants were also screened for their capacity to mediate effector function against HM1.24+ cells in an ADCC assay, as described above. […]
The ability of the variant anti-HM1.24 antibodies to mediate effector function was evaluated in an ADCC assay, as described above.

[1] = tested on: HM1.24+ multiple myeloma RPMI 8226 cells; experiment: Flow cytometry binding to HM1.24+ multiple myeloma RPMI 8226 cells; details: multiple myeloma cell line RPMI 8226, 1 million cells; FIG. 8
Description: Flow cytometry was used to confirm the binding of anti-HM1.24 antibody to HM1.24 antigen and plasma cells, as well as to evaluate the expression of HM1.24 on various cell types in PBMCs. 1×10^6 PBMCs were first mixed with either unlabelled HM1.24_H0L0_IgG1_WT or isotype control IgG1 (hIgG_Kappa, from Sigma) antibody. A mixture of cell type specific labeled antibodies (all mouse anti-human CD, BD Biosciences) was then added to tag the specific cell types in the PBMCs. The following antibodies were used: anti-CD15-FITC (BD 555401) for labeling PMNs, anti-CD19-PerCP-Cy5.5 (BD 3409510) for labeling B-cells, anti-CD14-PE-Cy7 (BD 557742) for labeling monocytes, ant-CD56-APC (BD 555518) for labeling NK cells, and anti-CD3-APC-Cy3 (BD 557832) for labeling T cells. After incubation on ice for 30 min. in the dark, the cells were washed and mixed with R-PE conjugated F(ab′)2 fragment Goat anti-human IgG (against fc-gamma fragment) to specifically label the primary test antibody (anti-HM1.24 or isotype control). After incubation, cells were washed again and analyzed by 6-color flow cytometry using a FACS Canto II flow cytometer to determine the expression of HM1.24 on any of these specific cell types in PBMCs. […]

B1: HM1.24_H0L0_IgG1_WT: Anti-HM1.24 antibody with murine WT VH (H0) and VL (L0), human kappa and IgG1 constant regions (antibody)
heavy: QVQLQQSGAELARPGASVKLSCKASGYTFTPYWMQWVKQRPGQGLEWIGSIFPGDGDTRYSQKFKGKATLTADKSSSTAYMQLSILAFEDSAVYYCARGLRRGGYYFDYWGQGTTLTVSS[not shown - human IgG1 constant region]
light: DIVMTQSHKFMSTSVGDRVSITCKASQDVNTAVAWYQQKPGQSPKLLIYSASNRYTGVPDRITGSGSGTDFTFTISSVQAEDLALYYCQQHYSTPFTFGSGTKLEIKRTVAAPSVFIFPPSDEQLKSGTASVVCLLNNFYPREAKVQWKVDNALQSGNSQESVTEQDSKDSTYSLSSTLTLSKADYEKHKVYACEVTHQGLSSPVTKSFNRGEC
In the case of B1, the “binding to PBMC cell types (HM1.24 expression)” value (PBMCs) is reported as “not expressed to a significant degree”, the ADCC activity (HM1.24+ RPMI8226 cells) is reported as “does not mediate ADCC” and the “binding to plasma cells” value [1] is reported as “bind well”.
